Laboratory results reported in EP3069727B1, “PHARMACEUTICAL COMPOSITION FOR CANCER PREVENTION AND TREATMENT CONTAINING PEPTIDE ORIGINATED FROM C12ORF59 PROTEIN AS AN ACTIVE INGREDIENT” (Korea Research Institute of Bioscience and Biotechnology, priority 2015, dated 2018).
At least one peptide structure holds a part that was inferred or is arguable (an end, a ring closure or a residue). Residues, ends and D or L forms follow the SMILES beside them.

Legend:
Assay type in all cases: cell-based
SW480 cells [1] = assay: Invasion assay with peptide-treated SW480 cells; details: for inhibition of the invasion of colorectal cancer cells compared to the control: peptide 50µM, control DMSO 0.25%; for invasion of cells reduced by: concentration not given
Experimental: (§1) Particularly, the porous membrane of 24-well transwell plate (8 µm pore size; Costar, USA) was coated with 100 µℓ of matrigel (BD Biosciences, USA) diluted in serum free medium at the concentration of 250 µg/mℓ, which stood at room temperature for 1 hour for fixing. The lower part of the transwell plate was coated with 100 µℓ of collagen type I (Sigma) at the concentration of 20 µg/mℓ. The said collagen type I was used as a chemoattractant. 1×10^4 cells resuspended in serum free medium were distributed in the upper chamber of the said 24-well transwell plate, followed by culture at 37°C with 5% CO2 for 48 hours, during which the cells were induced to migrate from the upper chamber to the lower chamber. The non-migrated cells were eliminated from the surface of the upper chamber. […] The excessive crystal violet solution was washed off with distilled water. The selected area (×100) was photographed. The number of the cells migrated was counted from 5 different selected areas. Then, mean value and standard error were obtained.
SW480 colorectal cancer cells were treated with peptides originated from C12orf59, and effects of the peptids on invasion of the cells were analyzed.

colorectal cancer cells = assay: Cellular survival rate of colorectal cancer cells measured by absorbance; details: as in Example <3-2>
Experimental: (§2) Particularly, 100 µℓ of poly-HEMA (Sigma) at the concentration of 12 mg/mℓ was loaded in 96-well plate, which stood in clean bench for 1 day, followed by drying. On the next day, the plate was coated with Poly-HEMA once again. Cells were distributed in the poly-HEMA coated plate by 100 µℓ/well (1×10^4 cells/well). At that time, serum-free medium was used. 6 days later, 10 µℓ of CCK-8 reagent (Dojindo cat. CK04-13) was added to each well, followed by reaction for 3 hours. Then, OD450 was measured.
In particular, a cellular survival rate was measured using absorbance in the same manner as in Example <3-2>.

SW480sub cells = assay: Invasion assay (Matrigel-coated transwell, collagen type I chemoattractant) with peptide-treated SW480sub cells; details: for invasion reduced compared to the vehicle control: peptide 50 µM; for colorectal cancer cell invasion reduced by: peptide 100 µg/mℓ, 48 hours
Experimental: SW480sub was subpopulation of SW480 having high in vitro invasion and in vivo metastasis ability. The effect of each peptide on colorectal cancer cell invasion was analyzed using the said SW480sub. SW480sub cells were mixed with each peptide, followed by pre-incubation for 30 minutes.
as §1

SW480 cells [2] = assay: Cell survivability under anchorage independent condition (poly-HEMA plate, CCK-8, OD450); details: peptide 100 µg/mℓ, 6 days
Experimental: 6 days later, cell survivability was measured by colorimetric technique under the anchorage independent condition.
as §2

[3] = tested on: C8161 (human melanoma) cell line; assay: Invasion assay with C8161 cells (Matrigel-coated Transwell); details: 24 h
Experimental: Specifically, C8161 (human melanoma) cell line was cultured in DMEM containing 10% FBS, penicillin-streptomycin, L-glutamine, sodium pyruvate and glucose. C8161 cells (1 x 10^4) in the presence of the peptide were plated in serum-free medium on 24-well Transwell inserts (8 µm pore size; Costar, USA) coated with 25 µg of […] (BD Biosciences, USA). The underside of the insert was coated with 100 µℓ of collagen type I (Sigma) at the concentration of 5 µg/mℓ. […] The number of cells that had invaded was counted in five representative fields per insert. Then, mean value and standard deviation were obtained.

CC(C)C[C@H](NC(=O)[C@@H](N)CS)C(=O)N[C@H](C(=O)N[C@H](C(=O)N[C@@H](CC(=O)O)C(=O)N[C@@H](Cc1c[nH]c2ccccc12)C(=O)N[C@H](C(=O)N[C@@H](Cc1c[nH]cn1)C(=O)O)C(C)C)[C@@H](C)O)[C@@H](C)O [A/B common, CLTTDWVH] (H-CLTTDWVH-OH)
inhibition of the invasion of colorectal cancer cells compared to the control (SW480 cells [1]): effects similar to those of A_C-term2 and B_C-term2

CC(C)C[C@H](NC(=O)[C@H](CS)NC(=O)[C@H](Cc1c[nH]cn1)NC(=O)[C@H](CCC(=O)O)NC(=O)[C@@H]1CCCN1C(=O)[C@H](CC(N)=O)NC(=O)CNC(=O)[C@H](CS)NC(=O)[C@H](CC(N)=O)NC(=O)[C@H](CCC(=O)O)NC(=O)[C@@H](N)CCC(=O)O)C(=O)N[C@H](C(=O)O)[C@@H](C)O [A_C-term1, EENCGNPEHCLT] (H-EENCGNPEHCLT-OH)
effect on the survival of colorectal cancer cells (colorectal cancer cells): inhibitory effects on the survival of colorectal cancer cells in a concentration-dependent manner | invasion of cells reduced by (SW480 cells [1]): 48% | invasion reduced compared to the vehicle control (SW480sub cells): 48% | colorectal cancer cell invasion reduced by (SW480sub cells): about 92%

NC(=O)C[C@H](NC(=O)[C@H](CCC(=O)O)NC(=O)[C@@H](N)CCC(=O)O)C(=O)N[C@@H](CS)C(=O)NCC(=O)N[C@@H](CC(N)=O)C(=O)N1CCC[C@H]1C(=O)O [A_C-term2, EENCGNP] (H-EENCGNP-OH)
invasion of cells reduced by (SW480 cells [1]): 38% | invasion reduced compared to the vehicle control (SW480sub cells): 46% | colorectal cancer cell invasion reduced by (SW480sub cells): about 99%

CC(C)C[C@H](NC(=O)[C@H](CS)NC(=O)[C@H](Cc1c[nH]cn1)NC(=O)[C@H](CCC(=O)O)NC(=O)[C@@H]1CCCN1C(=O)[C@@H](N)CC(N)=O)C(=O)N[C@H](C(=O)O)[C@@H](C)O [A_Cen, NPEHCLT] (H-NPEHCLT-OH)
invasion of cells reduced by (SW480 cells [1]): 49%

CC(C)C[C@H](NC(=O)[C@H](CS)NC(=O)[C@H](Cc1c[nH]cn1)NC(=O)[C@H](CCC(=O)O)NC(=O)[C@@H]1CCCN1C(=O)[C@@H](N)CC(N)=O)C(=O)N[C@H](C(=O)N[C@H](C(=O)N[C@@H](CC(=O)O)C(=O)N[C@@H](Cc1c[nH]c2ccccc12)C(=O)N[C@H](C(=O)N[C@@H](Cc1c[nH]cn1)C(=O)O)C(C)C)[C@@H](C)O)[C@@H](C)O [A_N-term, NPEHCLTTDWVH] (H-NPEHCLTTDWVH-OH)
effect on the survival of colorectal cancer cells (colorectal cancer cells): inhibitory effects on the survival of colorectal cancer cells in a concentration-dependent manner | invasion of cells reduced by (SW480 cells [1]): 39%

CC(C)C[C@H](NC(=O)[C@H](CS)NC(=O)[C@H](Cc1c[nH]cn1)NC(=O)[C@H](CCC(=O)O)NC(=O)[C@@H]1CCCN1C(=O)[C@H](CC(N)=O)NC(=O)CNC(=O)[C@H](CS)NC(=O)[C@H](CC(N)=O)NC(=O)[C@H](CCC(=O)O)NC(=O)[C@@H](N)CCC(=O)O)C(=O)N[C@H](C(=O)N[C@H](C(=O)N[C@@H](CC(=O)O)C(=O)N[C@@H](Cc1c[nH]c2ccccc12)C(=O)N[C@H](C(=O)N[C@@H](Cc1c[nH]cn1)C(=O)O)C(C)C)[C@@H](C)O)[C@@H](C)O [A_intact, EENCGNPEHCLTTDWVH] (H-EENCGNPEHCLTTDWVH-OH)
invasion reduced compared to the vehicle control (SW480sub cells): 40% | cell survivability reduced by (SW480 cells [2]): 82% | C8161 invasion reduced by ([3]; 30 µg/mℓ): 10% | C8161 invasion reduced by ([3]; 100 µg/mℓ): 45%

CC[C@H](C)[C@H](NC(=O)[C@H](CS)NC(=O)[C@H](CS)NC(=O)[C@@H]1CCCN1C(=O)[C@H](CCC(N)=O)NC(=O)[C@@H]1CCCN1C(=O)[C@H](CCCNC(=N)N)NC(=O)[C@H](Cc1c[nH]c2ccccc12)NC(=O)[C@@H](N)CO)C(=O)N[C@@H](CO)C(=O)O [B_C-term2, SWRPQPCCIS] (H-SWRPQPCCIS-OH)
invasion of cells reduced by (SW480 cells [1]): 39% | invasion reduced compared to the vehicle control (SW480sub cells): 50%

CC[C@H](C)[C@H](NC(=O)[C@H](CS)NC(=O)[C@H](CS)NC(=O)[C@@H]1CCCN1)C(=O)N[C@@H](CO)C(=O)N[C@@H](CO)C(=O)O [B_Cen2, PCCISS] (H-PCCISS-OH)
inhibition of the invasion of colorectal cancer cells compared to the control (SW480 cells [1]): superior inhibitory effects
